Article PMC12136788
This is one part of the list.

B1: chr12:24812190:24812291:-|3pUTR|ENSG00000060982|msi1|FALSE|unique (ssRNA)
RNA: GGGAGUUCUACAGUCCGACGAUCUUUACUAUCUCCUAUCCUGAUAGGUGGAAGGUUUACUGAAUUGGAAAUUGGUUGACUAUUAGUUUUUAACUAAAAUGUGCAAUAACACAUUGCAGUUUCCUCAAACUAGUUUCCUAUGAUCAACAGAGGAUUGAGCAUCA
B2: ENSG00000107863:be:win_4951|CDS|ENSG00000107863|bound_else_gene|NA|bound_elsewhere_windowed (ssRNA)
RNA: GGGAGUUCUACAGUCCGACGAUCGAGAGGCUUUUCCGAGGAAAACUGCAAGAAGUGACUAAGAGCAGCCGGAGAAAUUCUGAAGGAAGUGAAUUAAGUUGCACCGAGGGAAGUUUAACAUCAAGUUUAGAUAGCCGGAGACAGCAACAGAGGAUUGAGCAUCA
B3: chr8:120459219:120459329:+|CDS|ENSG00000172167|unk|total|mutant (ssRNA)
RNA: GGGAGUUCUACAGUCCGACGAUCUUUGGAUUUGAAAUCCGUUUUCCUGAAUUUUGUUUAAAGGGAGUCACACUUAAGAAUUUCCGUACUUCUAAUUUAAAUACUGACUUCCUUGCCAAAAAGAUCAUACCAUCAAAGGAUAAGCAACAGAGGAUUGAGCAUCA
B4: ENSG00000198589:be:win_5501|CDS|ENSG00000198589|bound_else_gene|NA|bound_elsewhere_windowed (ssRNA)
RNA: GGGAGUUCUACAGUCCGACGAUCUGCUUAUAGAAGGAACAAGUCUGGUUUGCAUGAAGUCGAGUAGUUCAGUUGUGGAAUUGGUUAUGCUACUGUGUUCUCAGGAGUGGCAAAAUUCUAUUCAGAAGAAUGCAGGCCUUGCUUCAACAGAGGAUUGAGCAUCA
B5: chr12:48782793:48782894:-|CDS|ENSG00000174233|msi1|total|mutant (ssRNA)
RNA: GGGAGUUCUACAGUCCGACGAUCGCACUGUUGGCCUGUGCCGCCGCCCUGUUCGUGGGGCUCAUGGUGGUGUGUAACCGGCACCGCUUCCGCCAGGACUCCAUGUGGGUGGUGAGCUACGUGGUGCUGGGCAUCCUGGCGGCACAACAGAGGAUUGAGCAUCA
B6: chr12:27755550:27755651:+|3pUTR|ENSG00000061794|msi1|FALSE|unique (ssRNA)
RNA: GGGAGUUCUACAGUCCGACGAUCAUACUAAUGCUUAAUGGCAAUGAUUACUCCAGAGUUUUUUAAUUUUUACACUGGGGCAAUAGACUAGGAGGUCUCUGAUUUCUUCUUGGUCUAAAGUGUUUUGAUUUUAUUUCUACAUAACAACAGAGGAUUGAGCAUCA
B7: chr4:121668310:121668420:-|3pUTR|ENSG00000164111|msi1_unk|total|mutant (ssRNA)
RNA: GGGAGUUCUACAGUCCGACGAUCCCUUCAGCACCUUCCGCUGCAUUUGUAUGCCAGUGCUUAACACAUUGCCUUAUUCAUACCCGCAUGCUCAUGACCAACACAUACACGUCACCGAAGAAAACCGUGGUGCUUCUUUCUGAUCAACAGAGGAUUGAGCAUCA
B8: chr16:31131432:31132008:-|three_prime_utr|ENSG00000052344|control|control|control (ssRNA)
RNA: GGGAGUUCUACAGUCCGACGAUCCCAUUCUUCUGGGUGUGCUUUUUGGGACCAUCACUGAGAGUCAGGAGUUUUACUGCCUGUAGCAAUGGCCAGAGCCUCUGGCCCCUCACCCACCAUGGACCAGCCCAUUGGCCGAGCUCCCAACAGAGGAUUGAGCAUCA
B9: chr10:121967677:121967791:-|CDS|ENSG00000107672|unk|total|mutant (ssRNA)
RNA: GGGAGUUCUACAGUCCGACGAUCAAAUCCGCCCGAAGCUGAAGAACUCAUCCGUGAUGAAGACCGUCCUGAUUUUGAAUUCACCGUCUAUGACUCCUGGAAGAUAACAGGCAGAACAGCAGAAAACACCUUUAAUAAAACCCACAACAGAGGAUUGAGCAUCA
B10: chr8:88032264:88032379:-|3pUTR|ENSG00000156103|unk|total|mutant (ssRNA)
RNA: GGGAGUUCUACAGUCCGACGAUCACUCCUUAUAAUGUUGCGUCAUUAAAGGUCAAGGGGUCAUGCUAUUAAUCUCAUUGCUACCGACCAUUAACAUGACUGAACUUUUCCACAAAGUACUUAUGUUUACAAUGCUAUAACCCUCAACAGAGGAUUGAGCAUCA
B11: chr11:134151495:134151596:+|3pUTR|ENSG00000166086|unk|total|mutant (ssRNA)
RNA: GGGAGUUCUACAGUCCGACGAUCCCGUGCCAUGGGAACCAGGUCUGAAAAAGCCGAGAGAAGUGAAAGCCGAGUCUGGGAAGCCGCUGCCUAUAACUGAGACCCGACGGAAAAGGAAUACUCGUGUAUUUUAAGAUAUGAAUGCAACAGAGGAUUGAGCAUCA
B12: chr1:232398519:232398625:-|3pUTR|ENSG00000116991|unk|total|mutant (ssRNA)
RNA: GGGAGUUCUACAGUCCGACGAUCACAGCCGUUUUAUUUCCACAGCCACAUUACCACCGCAAUAAGAAAGGAGGCACCGUACACCGUUGGAAAAGCUUUGUGGGGGGAUUAAAAAAAAAAAAAAGCACUGUUGUGUUUAACACUCAACAGAGGAUUGAGCAUCA
B13: chr7:127373434:127373542:-|CDS|ENSG00000048405|unk|total|mutant (ssRNA)
RNA: GGGAGUUCUACAGUCCGACGAUCAAAACACCGUGAUUCAAAACAUGAUGGCACUUCUAACUCUCCCCGUAAAAAGUAUGAAGCCGCUGACGUCGGUAUUGAAGUAAAAGUCACAAAAAACUUUUCUCUUCACAGAUGCAAUAACAACAGAGGAUUGAGCAUCA
B14: chr1:114568131:114568247:-|CDS|ENSG00000116752|unk|FALSE|bound_elsewhere (ssRNA)
RNA: GGGAGUUCUACAGUCCGACGAUCUUCUAGUUGGGUAUCCCUGGUCAGUAAGAAUUAUGAGAUUGAACGGACUAUUGUUCAGCUAGAAAAUGAAAUCUAUCAAAUUAAGCAGCAACAUGGAGAGGCAAACAAAGAAAACAUCCGCAACAGAGGAUUGAGCAUCA
B15: chr12:39553730:39553837:-|3pUTR|ENSG00000173208|unk|total|mutant (ssRNA)
RNA: GGGAGUUCUACAGUCCGACGAUCGAAGUAUGUUAAGCUAAGCACAGAGAAAAAAAGGCAGCAAGACAUGUUUUAUAAGAUUUCCGCAUUAAGGAAGUAUAUGAUCUGACUUUUCAGAAGAAAAUAAACAAAUGCAUUAUGUAACAACAGAGGAUUGAGCAUCA
B16: chr22:44243664:44249684:-|three_prime_utr|ENSG00000138944|control|control|control (ssRNA)
RNA: GGGAGUUCUACAGUCCGACGAUCGCACCCGGUGCAGCCUCCGAGAAGAACAACUUCUACAGAGAUGCCAGGGACAGCCGAGGUAGCGGCGGUGGCACAGGAGGAAAUGCUGCCUGUGCCCAAAGCCCCCUUCCGCGGACUUCUCAACAGAGGAUUGAGCAUCA
B17: ENSG00000198589:be:win_7951|CDS|ENSG00000198589|bound_else_gene|NA|bound_elsewhere_windowed (ssRNA)
RNA: GGGAGUUCUACAGUCCGACGAUCCGUGAUGCAACUCUUUUGCUGUGGUAUUGGAAUGGAAAAUGCAGUGGGAUUGGAGAUAACCCAGGCAGUGAGACUGCUGCUCCUCGGGCCAUUUUGACCGGCCAUGACUAUGAGGUCACACAACAGAGGAUUGAGCAUCA
B18: chr8:23572142:23572248:+|3pUTR|ENSG00000147454|unk|FALSE|unique (ssRNA)
RNA: GGGAGUUCUACAGUCCGACGAUCCCUCCCUGGGCAGAAUGUAGCUUUUCUGCUUCACUGUGGCAGCCUCCUCCCUGGAUCCUUAGAUCCCAGAGGAGGGAAGAAAAUUUGCAGUGACUGAAAACAGUAAAAAAAAAAAAAAAACAACAGAGGAUUGAGCAUCA
B19: chr6:149811313:149811414:+|3pUTR|ENSG00000120265|msi1|FALSE|unique (ssRNA)
RNA: GGGAGUUCUACAGUCCGACGAUCUGUUUCUAAUUUGCUGCUGAUAAUGUAUAUGAACUUAACAUGCUGUGUAAGCUGUGUCCUAGUUCUUGAACAGUUUAUGCAGUGCUGCUUUGCCAAAUAAAGUUAAAAGUAAAAGAGGCACAACAGAGGAUUGAGCAUCA
B20: ENSG00000165280:stop:overlap|stop_codon|ENSG00000165280|stop_codon|NA|stop_codon (ssRNA)
RNA: GGGAGUUCUACAGUCCGACGAUCCCGAGGUCAUGAACUCUCUAGCAGUUACUAUGGAUGACUUCCGGUUUUCCCUCCUUUUCUAGUGGGCCUUGAGCCAGAGUAACCCAUCAGCACUGCGGGAAACCGUGGUAGAGGUGCCACCAACAGAGGAUUGAGCAUCA
B21: chr9:21227606:21228173:-|CDS|ENSG00000234829|control|control|control (ssRNA)
RNA: GGGAGUUCUACAGUCCGACGAUCGCAGACCUUCAAUCUCUUCAGCACAGAGGACUCAUCUGCUGCUUGGGAACAGAGCCUCCUAGAAAAAUUUUCCACUGAACUUUACCAGCAACUGAAUAACCUGGAAGCAUGUGUGAUACACAACAGAGGAUUGAGCAUCA
B22: ENSG00000107863:be:win_1901|CDS|ENSG00000107863|bound_else_gene|NA|bound_elsewhere_windowed (ssRNA)
RNA: GGGAGUUCUACAGUCCGACGAUCCAAAACCAUCAUUUAGCCAGAAAUCAUUUGUUUCUAUCAAAGACCAAAGACCAGUAAAUCACUUGCAUCAGAACAGUCUGUUGAAUCAGCAGACAUGGGUAAGGACUGACAGUGCCCCCGCAACAGAGGAUUGAGCAUCA

Target: T1, UNK ZnF1-6 (called full-length) (human, UniProt Q9C0B0 30-357)
T1 sequence: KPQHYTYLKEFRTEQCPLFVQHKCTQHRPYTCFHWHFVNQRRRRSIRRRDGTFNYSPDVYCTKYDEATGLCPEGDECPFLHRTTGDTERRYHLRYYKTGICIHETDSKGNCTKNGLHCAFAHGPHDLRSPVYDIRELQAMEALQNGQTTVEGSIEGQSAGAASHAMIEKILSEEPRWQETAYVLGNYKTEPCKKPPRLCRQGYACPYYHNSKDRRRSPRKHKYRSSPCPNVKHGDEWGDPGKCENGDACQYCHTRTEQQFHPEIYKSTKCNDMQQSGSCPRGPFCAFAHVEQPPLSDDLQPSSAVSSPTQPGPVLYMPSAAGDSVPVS
Test: nsRBNS (natural sequence RNA bind-n-seq); RBNS binding buffer (assumed for nsRBNS): 25 mM Tris pH 7.5, 150 mM KCl, 3 mM MgCl2, 0.01% Triton X-100, 500 ug/ml BSA, 20 U/ml SUPERase-In, 4 C; UNK is unkempt and MSI1 is Musashi-1; names of the RNAs are library labels; protein concentration not given here; high values mean tight binding

Binder | binding signal [enrichment R]
B1 | 0.421
B2 | 0.786
B3 | 0.659
B4 | 0.512
B5 | 0.707
B6 | 0.565
B7 | 0.543
B8 | 0.803
B9 | 0.616
B10 | 0.466
B11 | 0.643
B12 | 0.635
B13 | 0.242
B14 | 0.794
B15 | 0.622
B16 | 0.449
B17 | 0.67
B18 | 0.635
B19 | 0.451
B20 | 0.788
B21 | 0.842
B22 | 0.837
